{"source": "ChEMBL document CHEMBL4888484", "about": "“Replenishing the malaria drug discovery pipeline: Screening and hit evaluation of the MMV Hit Generation Library 1 (HGL1) against asexual blood stage Plasmodium falciparum ,using a nano luciferase reporter read-out” (2022)", "note": "About 540 (0.36%) of roughly 150,000 compounds showed an effect of 50% or more. The list shows a part of the results.", "data": [{"system": "Plasmodium falciparum", "test": "Primary screen in NF54 nanoGlo assay, in single point, at 2uM, 72h; a lower Z score goes with more inhibition", "type": "functional, Erythrocyte", "conditions": "timepoint 72 hour", "units": {"% Inhibition": "%"}, "values": [{"smiles": "Cc1nc(C(=O)Nc2c(F)cccc2NC(=O)OC(C)(C)C)co1", "% Inhibition": 8, "Z score": -1.05}, {"smiles": "CCCNC(=O)[C@H](C)NC(=O)c1cc2n(n1)CCCN(Cc1ccccc1)C2=O", "% Inhibition": -1, "Z score": 0.12}, {"smiles": "CC(C)(C)c1nnc(Cn2cnc3c2CCCC3)o1", "% Inhibition": -10, "Z score": 1.86}, {"smiles": "Clc1cccc(C2=Nc3ccc(Br)cc3C(c3cccc(Cl)c3)=Nc3ccc(Br)cc32)c1", "% Inhibition": 6, "Z score": -0.57}, {"smiles": "O=C1C[C@H](Nc2ccc3c(c2)OCO3)C(=O)N1Cc1ccccc1", "% Inhibition": -10, "Z score": 1.96}, {"smiles": "CS(=O)(=O)NCCOC(=O)c1c(F)cccc1F", "% Inhibition": -5, "Z score": 0.87}, {"smiles": "O=C([C@H]1CCS(=O)(=O)C1)N1CCC2(CCCCC2)C1", "% Inhibition": 28, "Z score": -3.76}, {"smiles": "O=C(NCC(c1ccco1)c1ccco1)c1ccccc1", "% Inhibition": -2, "Z score": 0.31}, {"smiles": "CC(C)(C)C(NC1CCN2CCCC2C1)c1ccc(F)cc1", "note": "(stereo not given)", "% Inhibition": 2, "Z score": -0.3}, {"smiles": "NC(=O)Nc1ccc(-c2csc(C3(NC(=O)c4ccccc4)CCCC3)n2)cc1", "% Inhibition": -2, "Z score": 0.22}, {"smiles": "Brc1cc(Br)c2nc(-c3cnccn3)ccc2c1", "% Inhibition": 33, "Z score": -4.31}, {"smiles": "Cc1nc(CC(=O)N2CCCN(C(=O)[C@@H]3CCCO3)CC2)cs1", "% Inhibition": -8, "Z score": 0.76}, {"smiles": "Cc1ncccc1Oc1ncnc(N2CCC(NS(C)(=O)=O)CC2)c1C", "% Inhibition": -5, "Z score": 1}, {"smiles": "O=C(NCc1cccnn1)N1CCC[C@H]1C(F)F", "% Inhibition": -4, "Z score": 0.51}, {"smiles": "COc1ccc(Cn2c(N)c(C#N)c3c2CCCC3)cc1", "% Inhibition": -2, "Z score": 0.35}, {"smiles": "COCCOc1ccc(N[C@@H](C)c2nnc(C)o2)cc1Cl", "% Inhibition": -22, "Z score": 2.05}, {"smiles": "COc1ccc(NC(=O)C2(N(Cc3ccccc3)C(=O)Cc3ccccc3)CCC3Cc4ccccc4CC3C2)c(OC)c1", "note": "(stereo not given)", "% Inhibition": -35, "Z score": 4.1}, {"smiles": "COc1cc(C2CN(C(=O)NC(C)(C)C)CC2C(=O)N2CCOCC2)cc(OC)c1OC", "note": "(stereo not given)", "% Inhibition": -6, "Z score": 0.71}, {"smiles": "CCOC(=O)[C@@H]1CCCCN1c1cc(CCN)nc(C)n1", "% Inhibition": -5, "Z score": 1.01}, {"smiles": "c1ccc(-c2nnn(Cn3nnc(-c4ccccc4)n3)n2)cc1", "% Inhibition": -46, "Z score": 5.37}, {"smiles": "C[C@H]1CCc2c(sc(NC(=O)CN3CCN(Cc4ccc(Cl)s4)CC3)c2C#N)C1", "% Inhibition": -4, "Z score": 0.82}, {"smiles": "NC(=O)[C@H]1CCCN(C(=O)CC2CCCC2)C1", "% Inhibition": 4, "Z score": -0.47}, {"smiles": "CCc1cccc(NC(=O)c2cc(S(=O)(=O)N3CCCCCC3)cn2C)c1", "% Inhibition": -2, "Z score": 0.39}, {"smiles": "NC[C@H](c1nc(CS(=O)(=O)C2CC2)no1)C1CCCCCC1", "% Inhibition": 2, "Z score": -0.28}, {"smiles": "O=C(O)c1ccc(NS(=O)(=O)c2ccc3ncccc3c2)c(O)c1", "% Inhibition": -3, "Z score": 0.56}, {"smiles": "Cc1ocnc1C(=O)N[C@@H]1COC2(CCCCC2)C1", "% Inhibition": -7, "Z score": 1.19}, {"smiles": "COC[C@]1(S(=O)(=O)NCCNc2ccccc2)C[C@@H]1C", "% Inhibition": -6, "Z score": 0.98}, {"smiles": "O=S(=O)(c1ccc(F)cc1)N1c2cc(Cl)ccc2Oc2nc3ccccc3nc21", "% Inhibition": 8, "Z score": -1.45}, {"smiles": "Cc1cc(Cl)ccc1N1C(=O)N[C@@H](Cc2c[nH]c3ccc(Br)cc23)C1=O", "% Inhibition": -9, "Z score": 0.84}, {"smiles": "Cc1ccc(C)c(-c2cc(C(=O)N[C@H](C(=O)NC3CC3)C(C)C)no2)c1", "% Inhibition": -7, "Z score": 0.9}, {"smiles": "CCCn1cnc2c1c(=O)n(CC1CC1)c(=O)n2-c1cccc(OC)c1", "% Inhibition": -6, "Z score": 0.91}, {"smiles": "O=C1CCC(=O)N1C1CN(S(=O)(=O)c2cc(F)ccc2F)C1", "% Inhibition": 3, "Z score": -0.3}, {"smiles": "CC(=O)N[C@H]1CCN(C(=O)[C@H]2Cc3ccc(cc3)Oc3cccc(c3)C(=O)N[C@@H](CC(C)C)C(=O)N2)C1", "% Inhibition": -11, "Z score": 2.15}, {"smiles": "CC[C@H](C)N(Cc1ccc(OS(=O)(=O)CC)cc1)C(=O)C1CCCC1", "% Inhibition": 0, "Z score": -0.01}, {"smiles": "O=C(O)c1ccc(NC2=NCCC2)cc1", "% Inhibition": -11, "Z score": 1.6}, {"smiles": "CC(NC(CC1CCC1)c1ccccc1)c1cnn(C)n1", "note": "(stereo not given)", "% Inhibition": -5, "Z score": 0.78}, {"smiles": "CCCCc1nc(Cn2nc3cnccn3c2=O)cs1", "% Inhibition": 2, "Z score": -0.25}, {"smiles": "C[C@H]1COc2ccccc2N1CC(=O)NCc1ccco1", "% Inhibition": -8, "Z score": 0.89}, {"smiles": "CC(NC(=O)NCC(c1ccco1)N1CCCC1)c1ccncc1", "note": "(stereo not given)", "% Inhibition": -11, "Z score": 1.46}, {"smiles": "Cc1c(Br)cncc1NC(=O)N1CCCc2n[nH]cc21", "% Inhibition": -12, "Z score": 1.29}, {"smiles": "COCC1(NCc2cc(OC)ccc2F)CCC1", "% Inhibition": 3, "Z score": -0.47}, {"smiles": "CCc1ccc(NC(=O)CNC(C)=O)cc1CC", "% Inhibition": 16, "Z score": -1.86}, {"smiles": "CCc1occc1-c1nc(Cc2cccnc2)no1", "% Inhibition": -11, "Z score": 2.21}, {"smiles": "CC(C)(C)OC(=O)N1CCC(N(Cc2ccccn2)C(=O)c2ccccc2)CC1", "% Inhibition": 2, "Z score": -0.4}, {"smiles": "COc1ccccc1N(C)CC(=O)c1c[nH]c2ccccc12", "% Inhibition": -4, "Z score": 0.53}, {"smiles": "O[C@@H]1C[C@@H](c2nc(Cc3ccc(F)cc3Cl)no2)N(C2CCCCC2)C1", "% Inhibition": 16, "Z score": -1.82}, {"smiles": "CC(C)(C)c1cc(CN2CCC(CCC(=O)NCc3cccnc3)CC2)n[nH]1", "% Inhibition": -9, "Z score": 1.37}, {"smiles": "CNc1ccnc(N2CCC[C@H](Cn3ccnc3)C2)n1", "% Inhibition": -5, "Z score": 0.63}, {"smiles": "O=C(Nc1ccccc1OC[C@H]1CCCO1)c1cnc(C2CC2)nc1", "% Inhibition": -5, "Z score": 0.85}, {"smiles": "O=C1NCC(C(=O)N2CCCC2c2ccc3c(c2)OCCO3)N1", "note": "(stereo not given)", "% Inhibition": 6, "Z score": -1.08}, {"smiles": "CNC[C@H]1CCCN1C(=O)c1[nH]nc(C(C)C)c1Br", "% Inhibition": 0, "Z score": -0.03}, {"smiles": "Cc1cc(S(=O)(=O)N2CCC3(CCC(=O)N3Cc3c(C)noc3C)CC2)ccc1F", "% Inhibition": 9, "Z score": -1.14}, {"smiles": "CC(CC(O)c1ccco1)Nc1cncc(Br)c1", "note": "(stereo not given)", "% Inhibition": -7, "Z score": 0.99}, {"smiles": "Cc1nc(CN(Cc2ccncc2)Cc2ccc(C)s2)c[nH]1", "% Inhibition": -8, "Z score": 1.04}, {"smiles": "C[C@]1(c2cccc(F)c2)CCN(Cc2cn[nH]c2)C1", "% Inhibition": -9, "Z score": 0.79}]}]}
